Experimental data as given in the supplement of paper PMC3334620.
The full ranking holds about 33,000 sequences; the median of “E-score (-0.5 to 0.5)” is about -0.035, and the highest 2% start at about 0.35. Some of the results follow.

What follows are sequences tested against T1, Pdr3 (UniProt P33200) (assay: PBM E-score (8-mer binding enrichment) (E-score (-0.5 to 0.5)); higher = stronger / more preferred TF binding; most listed sequences are background and not binding sites). Conditions: protein concentration: 200 nM; construct: GST-full length.
T1 sequence: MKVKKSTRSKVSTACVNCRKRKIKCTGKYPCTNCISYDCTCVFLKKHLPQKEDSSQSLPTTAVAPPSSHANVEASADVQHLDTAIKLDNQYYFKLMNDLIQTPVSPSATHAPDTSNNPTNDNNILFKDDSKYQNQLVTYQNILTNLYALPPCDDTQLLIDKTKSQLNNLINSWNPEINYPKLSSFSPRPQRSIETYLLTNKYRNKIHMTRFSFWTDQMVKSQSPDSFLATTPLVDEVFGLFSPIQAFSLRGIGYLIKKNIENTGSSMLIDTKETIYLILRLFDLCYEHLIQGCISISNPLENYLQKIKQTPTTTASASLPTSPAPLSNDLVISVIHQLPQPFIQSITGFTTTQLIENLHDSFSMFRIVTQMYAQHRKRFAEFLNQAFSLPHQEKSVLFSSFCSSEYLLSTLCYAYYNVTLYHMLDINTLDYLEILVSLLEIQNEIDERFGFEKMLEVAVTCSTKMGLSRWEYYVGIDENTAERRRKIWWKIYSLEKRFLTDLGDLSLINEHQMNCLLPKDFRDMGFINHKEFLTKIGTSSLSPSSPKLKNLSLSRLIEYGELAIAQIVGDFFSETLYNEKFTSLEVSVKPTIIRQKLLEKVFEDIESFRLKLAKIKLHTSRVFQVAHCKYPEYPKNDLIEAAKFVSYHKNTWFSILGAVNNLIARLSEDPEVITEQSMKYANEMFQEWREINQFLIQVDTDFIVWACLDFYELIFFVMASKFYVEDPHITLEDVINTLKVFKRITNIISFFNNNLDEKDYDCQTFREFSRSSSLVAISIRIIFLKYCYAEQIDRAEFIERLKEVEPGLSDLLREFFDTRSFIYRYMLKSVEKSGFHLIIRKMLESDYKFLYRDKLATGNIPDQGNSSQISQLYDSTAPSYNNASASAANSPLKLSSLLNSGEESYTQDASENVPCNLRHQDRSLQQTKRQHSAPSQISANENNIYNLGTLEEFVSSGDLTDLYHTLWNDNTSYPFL
Outline: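 E-scores (a modified Wilcoxon-Mann-Whitney statistic) were assigned by the Universal PBM Analysis Suite to every ungapped eight-base word pooled with its reverse complement. The input came from universal all-10-mer Agilent arrays made double-stranded by primer extension and probed with GST-tagged yeast transcription factors at about 100-200 nM. Fluorescent anti-GST detected bound protein, and masliner normalised the scans.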

Sequence | PBM E-score
CGTGTTGA | -0.0686
AGCTATCG | -0.0842
CCAGCCAA | -0.0622
AGCTCACT | -0.176
GTCAGGCA | -0.0365
ACAAAGAG | -0.0751
CAGTCGGC | 0.0494
ATCTACGG | 0.202
CGGATACG | 0.291
CGCGGCAA | 0.341
CCTCGTAG | -0.305
GTACTTGA | -0.168
ACTACATG | -0.0268
ATTTCATA | 0.121
AGCCCCAG | -0.0422
AATGAGCA | -0.246
GCGAAGAC | -0.0584
CGTTCTTC | 0.0181
GAAAACCC | 0.0571
GTTCACCA | -0.0164
AATTCATC | -0.0935
GCCGAAGC | 0.184

Sequence | PBM E-score
AGGTGCCG | 0.207
CCGTAGAG | -0.00528
CGCTAAAC | -0.0316
CAGTAAGC | -0.187
ATGCCCAG | 0.0614
CGGGCATC | 0.0745
GATAATAA | 0.0825
CGGAAGTA | 0.393
CCCCACCG | 0.172
GATATTGC | 0.0722
ATAGTTGG | -0.175
AGTCCGAA | 0.143
CCCAAGGG | -0.254
ACCGGGAC | 0.318
GTGACGAA | -0.0359
AATAAGAG | 0.0338
AGGAGTAC | -0.272
AATTTTAT | 0.208
CACCATTC | -0.0951
ACCAATGA | -0.223
ATTCAAAC | 0.012
ACGGGAGA | 0.0307

Sequence | PBM E-score
ACAGGTTA | -0.249
CCCAACCA | 0.093
AGTAGTCG | -0.123
TGCGTAAA | -0.163
TATGCTCA | 0.0839
ATGTCCAA | 0.0494
CCTTGCAA | -0.191
GCTGTGAA | -0.19
AGAGCAGC | -0.115
TCCATTCA | 0.0142
CAACTCGG | 0.116
GACTGACC | -0.366
ACCCACAA | 0.0366
CAAGTTTC | -0.0413
ACCATGCT | -0.00407
CTAGCTGC | -0.197
GACCAATA | -0.0553
AGTGCCAT | -0.255
GCACTAGC | -0.0738
CCGCCCTC | 0.212
GGCTGCTA | -0.0805
CCGTCGGA | 0.361

Sequence | PBM E-score
ATCGGCCA | 0.0858
ACCAGCCA | 0.0157
CACGTACC | -0.16
GACGACGC | 0.00312
CGTGTCAC | 0.0629
CCTTATTA | -0.176
AAGGCATT | -0.117
AAAGGTGT | 0.086
CAGGACTC | -0.198
CCCCAGAG | -0.182
ACCCACTC | 0.0407
AATTGACT | -0.00788
AGCGGTCG | -0.271
AAACTTGC | -0.0125
ATGTTCTA | -0.102
ACCTCCCA | -0.244
ATACGTCA | -0.00777
CGATGGTC | -0.034
CAGCAACA | 0.0154
ATCAATCG | 0.0277
